In PubChem BioAssay AID588795 (National Center for Advancing Translational Sciences (NCATS), 2011):
Among all 390,000 compounds or so, about 1,400 (0.36%) were called active. Inconclusive means that the source gave no clear call. Such entries were picked first, then a sample of the others. Calls follow the shape of the dose curve; as a rule, active = well fitted inhibition curve with a large enough effect; inconclusive = small, poorly fitted or top-dose-only effect; inactive = no such curve, though single readings can be large or run the other way. Potencies of inconclusive entries are doubtful fits and often do not repeat.

Molecular target: Flap endonuclease 1 (Homo sapiens) (UniProt P39748)
Experiment: qHTS Assay for the Inhibitors of Human Flap endonuclease 1 (FEN1). Also: nearly all actives have a fitted effect of over 65% in size.
Details: Recombinant FEN1 flap cleavage, fluorescence, 15 min; series mostly up to 114 µM; activity change, negative = inhibition: at the top concentration
In short: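 Compounds are tested as a concentration series against 10 nM FEN1; after a 15 min room-temperature preincubation, 50 nM substrate starts cleavage, with plate reads at 0 and 15 min. Normalized responses are fitted by a Hill equation.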
% is scaled to controls: 0 for no effect and ±100 for the full control effect; potency is read from the fitted curve at half-maximal effect; tags tell the direction and shape of the fitted curve.

Sequence of UniProt P39748 (P39748 whole entry, looked up): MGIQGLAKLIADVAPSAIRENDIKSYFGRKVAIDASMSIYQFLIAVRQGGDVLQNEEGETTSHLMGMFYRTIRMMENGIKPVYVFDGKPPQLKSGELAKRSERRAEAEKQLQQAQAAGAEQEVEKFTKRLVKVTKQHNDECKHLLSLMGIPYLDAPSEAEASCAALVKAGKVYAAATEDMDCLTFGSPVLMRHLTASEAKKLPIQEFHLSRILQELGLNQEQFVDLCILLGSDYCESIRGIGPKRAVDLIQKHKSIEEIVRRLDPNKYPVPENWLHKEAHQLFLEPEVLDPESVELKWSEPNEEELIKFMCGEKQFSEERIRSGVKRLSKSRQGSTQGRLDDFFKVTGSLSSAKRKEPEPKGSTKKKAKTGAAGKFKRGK

| Compound | Potency | activity change, negative = inhibition |
| --- | --- | --- |
| Cc1coc2c1c(C)cc1oc(=O)c(CC(=O)NCC(=O)O)c(C)c12 | inconclusive: 50.1 µM [inhibitor, partial curve, poor fit] |  |
| CCCn1c(C)cc(-c2csc(N)n2)c1C | inconclusive: 56.2 µM [inhibitor, partial curve, poor fit] |  |
| CCC(COC)Oc1cc(NCc2ccccc2)c2ncn(C(C)C)c2c1 (stereo unspecified) | inconclusive: 7.94 µM [inhibitor, full curve, poor fit] |  |
| C[C@H](CO)N1C[C@H](C)[C@@H](CN(C)C(=O)Nc2ccc(C(F)(F)F)cc2)Oc2c(NC(=O)Nc3ccc(C(F)(F)F)cc3)cccc2C1=O | inconclusive: 39.8 µM [inhibitor, partial curve, poor fit] |  |
| Nc1ccccc1C#Cc1ccccc1 | inconclusive: 79.4 µM [inhibitor, partial curve, poor fit] |  |
| CN(N=O)c1ccc2c(c1)Cc1ccccc1-2 |  | inactive: 12.9% |
| COc1ccccc1N1CCN(CC(=O)Nc2cccc(F)c2)CC1 |  | inactive: 0.141% |
| NS(=O)(=O)c1ccc(NC(=S)NCc2ccc(F)cc2)cc1 |  | inactive: -2.65% |
| N#Cc1c(SCC(=O)Nc2ccccc2C(F)(F)F)sc2c(O)cc(=O)[nH]c12 |  | inactive: -20.3% |
| COc1ccc(CN2C(=O)C(NC(=O)c3ccccc3C)(C(F)(F)F)N=C2c2ccccc2)cc1 (stereo unspecified) |  | inactive: 0.325% |
| COc1cccc(C2=Nc3cccc4cccc(c34)N2)c1 | inconclusive: 50.1 µM [inhibitor, partial curve, poor fit] |  |
| O=C(OCC(=O)N1CCc2ccccc21)c1ccc([N+](=O)[O-])o1 | inconclusive: 25.1 µM [inhibitor, single point] |  |
| C=CCC[C@H](Cc1ccc(F)cc1)C(=O)O[C@H](CNC(=O)[C@@H](CC=C)CC(=O)N(CCO)Cc1ccccc1)c1ccccc1 | inconclusive: 70.8 µM [inhibitor, partial curve, poor fit] |  |
| CC(C)(C)c1ccc(OCC(=O)Nc2ccncc2)c(Br)c1 | inconclusive: 50.1 µM [inhibitor, partial curve, poor fit] |  |
| O=S(c1ccccc1O)S(=O)c1ccccc1O (stereo unspecified) | inconclusive: 89.1 µM [inhibitor, single point] |  |
| N=C1/C(=C\c2ccc(-c3cccc(C(=O)O)c3)o2)C(=O)N=C2SC=C(c3ccccc3)N12 | active: 31.6 µM |  |
| O=C(c1cc(-c2cccc(O)c2)on1)N1CCc2ccccc2C1 | inconclusive: 20 µM [inhibitor, partial curve, poor fit] |  |
| CC1=NN(c2ccc(Cl)c(C(=O)O)c2)C(=O)/C1=C\c1ccc(-c2ccc(C(=O)O)cc2)o1 | inconclusive: 89.1 µM [inhibitor, single point] |  |
| O=C1C(c2ccccc2)=[N+]([O-])c2ccccc21 | inconclusive: 5.62 µM [inhibitor, full curve, poor fit] |  |
| CCc1ccc(-n2c(=O)c3ccccc3n(CC(=O)NCCc3ccc(OC)c(OC)c3)c2=O)cc1 |  | inactive: -14.3% |
| Cc1ccc(C)c(N2CCN(C(=O)c3cnn(C(C)(C)C)c3C3CCN(C(=O)OC(C)(C)C)CC3)CC2)c1 |  | inactive: -19.6% |
| CCc1ccc2c(COC(=O)C3CSC4(C)CCC(=O)N34)cc(=O)oc2c1 (stereo unspecified) | inconclusive: 79.4 µM [inhibitor, partial curve, poor fit] |  |

| Compound | Potency | activity change, negative = inhibition |
| --- | --- | --- |
| CCn1cc2nc(SCc3cccc(C(F)(F)F)c3)n(Cc3ccc(Cl)cc3)c(=O)c2n1 | inconclusive: 28.2 µM [inhibitor, partial curve, poor fit] |  |
| C=CC(=O)Nc1cccc(Oc2ccnc3[nH]ccc23)c1 | inconclusive: 31.6 µM [inhibitor, partial curve, poor fit] |  |
| COc1cc(C2CC(=O)N3CN(Cc4ccco4)CSC3=C2C#N)ccc1OCc1ccccc1 (stereo unspecified) | inconclusive: 10 µM [inhibitor, partial curve] |  |
| CN(C)c1ccc(CN(CC2CCCO2)C(=O)c2cc3ccccc3o2)cc1 (stereo unspecified) |  | inactive: -14.9% |
| CCOC(=O)c1c(C)oc2ccc(NS(=O)(=O)c3cccs3)cc12 | inconclusive: 79.4 µM [inhibitor, partial curve, poor fit] |  |
| Cc1cc(N2CCN(C)CC2)nc2ccc(NC(=O)c3ccc(C(C)(C)C)cc3)cc12 | inconclusive: 39.8 µM [inhibitor, partial curve, poor fit] |  |
| CSc1ccccc1C(=O)N1CCN(S(=O)(=O)c2sc(C(=O)O)c(C)c2C(=O)O)CC1 |  | inactive: -5.91% |
| O=C1Nc2ccccc2SC(c2ccccc2)C1O (stereo unspecified) | inconclusive: 100 µM [inhibitor, partial curve, poor fit] |  |
| O=C(c1ccc(-c2nc3ccccc3s2)o1)N1CCN(c2ccccc2O)CC1 |  | inactive: 4.3% |
| CCn1c(SCC(=O)N(C)C)nc2cc(S(=O)(=O)N3CCOCC3)ccc21 |  | inactive: 5.64% |
| CCc1nc(-c2cc(S(=O)(=O)N3CCN(c4ccc(OC)cc4)CC3)ccc2OC)no1 | inconclusive: 89.1 µM [inhibitor, single point] |  |
| Cc1nn(C(C)C(=O)NC2CCC(C)CC2)c(=O)c2c1sc1ccccc12 (stereo unspecified) | inconclusive: 56.2 µM [inhibitor, partial curve, poor fit] |  |
| C1=Cc2ccccc2/C1=C\c1cccc(/C=C2\C=Cc3ccccc32)c1 | active: 35.5 µM |  |
| COc1ccc(N(CC(=O)NC(C)c2ccccc2)S(=O)(=O)c2c(C)nn(C)c2C)cc1 (stereo unspecified) |  | inactive: 7.58% |
| CCOC(=O)c1c(C)[nH]c(C)c1S(=O)(=O)N1CCCC(C(=O)N2CCN(c3ccccc3F)CC2)C1 (stereo unspecified) |  | inactive: -5.83% |
| CC[N+](CC)(CC)CCCCOc1ccc2c(c1)C(=O)c1cc(OCCCC[N+](CC)(CC)CC)ccc1-2 | active: 12.6 µM |  |
| CCOc1cc(/C=C2\C(=O)ON=C2c2ccccc2)cc(Br)c1O | inconclusive: 70.8 µM [inhibitor, partial curve] |  |
| COc1ccc(NC(=O)CN(C)S(=O)(=O)c2ccc3[nH]c4c(c3c2)CCCC4)cc1OC | inconclusive: 89.1 µM [inhibitor, partial curve, poor fit] |  |
| COc1cccc(N2CCN(C(=O)c3ccc(CS(=O)c4cccc(Cl)c4)o3)CC2)c1 (stereo unspecified) |  | inactive: -5.36% |
| COc1ccc(NC(=O)c2nc(SCc3ccccc3F)ncc2Cl)cc1 | inconclusive: 89.1 µM [inhibitor, single point] |  |
| CN(C)CCCO[C@@H]1[C@H]2OC(C)(C)O[C@H]2O[C@@H]1[C@H](O)CO | inconclusive: 37.7 µM [inhibitor, single point] |  |
| CCOc1ccc(N=C2NC(=O)S/C2=C\c2ccc(N(C)C)cc2)cc1 | inconclusive: 39.8 µM [inhibitor, partial curve] |  |

| Compound | Potency | activity change, negative = inhibition |
| --- | --- | --- |
| CCOc1ccccc1NC(=O)COC(=O)/C=C/c1cccs1 | inconclusive: 89.1 µM [inhibitor, partial curve, poor fit] |  |
| O=C1C(Cl)=C(NC(=O)c2ccccc2)C(=O)C(Cl)=C1NC(=O)c1ccccc1 | active: 79.4 µM |  |
| Cc1ccc(F)cc1NCC(=O)Nc1ccc(Br)cc1 |  | inactive: 1.79% |
| CCc1cccc2c3c([nH]c12)C(CC)(CC(=O)O)OCC3 (stereo unspecified) | inconclusive: 3.36 µM [inhibitor, partial curve, poor fit] |  |
| CC/C=C/[C@@H](c1ccccc1)[C@H](C)C(O)CC(=O)SC(C)(C)C (stereo partly specified) |  | inactive: -17% |
| Cc1ccc(-n2nc(-c3ccc(F)cc3)c3cnc4cc5c(cc4c32)OCO5)cc1C |  | inactive: -6.06% |
| CNS(=O)(=O)c1cccc(C(=O)OCC(=O)c2ccc(S(=O)(=O)N3CCCCC3)cc2)c1 |  | inactive: -19.9% |
| CCOc1ccccc1NC(=O)COc1cccc2c(=O)n(CCOC)ccc12 | inconclusive: 44.7 µM [inhibitor, partial curve, poor fit] |  |
| CC[N+]1=C(C)C(C)(C)c2cc(C)ccc21 | inconclusive: 44.7 µM [inhibitor, partial curve] |  |
| COc1ccccc1-c1coc2c(CN(C)C)c(O)ccc2c1=O | inconclusive: 39.8 µM [inhibitor, single point] |  |
| O=C(O)c1ccc(/C=N/NC(=O)c2cc(-c3ccc4c5c(cccc35)CC4)n[nH]2)cc1 | inconclusive: 50.1 µM [inhibitor, partial curve, poor fit] |  |
| COc1cc(/C=N/NC(=O)CCn2c3ccccc3c3ccccc32)ccc1O | inconclusive: 79.4 µM [inhibitor, partial curve, poor fit] |  |
| CC(C)(C)C1CCc2onc(C(=O)Nc3sc4c(c3C#N)CCCC4)c2C1 (stereo unspecified) | inconclusive: 89.1 µM [inhibitor, single point] |  |
| O=C(COC(=O)c1ccc(F)cc1F)Nc1ncccn1 | inconclusive: 89.1 µM [inhibitor, single point] |  |
| COc1cc(N)c(Cc2nccc3cc(OC)c(OC)cc23)cc1OC | inconclusive: 89.1 µM [inhibitor, partial curve, poor fit] |  |
| NC(=O)N/N=C/c1c(O)ccc2oc3c(c12)CCCC3 |  | inactive: -30.7% |
| CCN(CC)CCNc1ncnc2c1sc1nc(N3CCCC3)c3c(c12)CC(C)(C)OC3 | inconclusive: 39.8 µM [inhibitor, partial curve, poor fit] |  |
| Cc1nc(-c2ccc(C(=O)Nc3ccccc3F)cc2)cs1 |  | inactive: 2.89% |
| COc1ccc(C(=O)Nc2ccc(OC)c([N+](=O)[O-])c2)cc1Br |  | inactive: -12% |
| Cc1ccc(SSc2cc(C)ccc2N)c(N)c1 | inconclusive: 89.1 µM [inhibitor, single point] |  |
| COc1ccc(OC(=O)c2cc3ccccc3o2)cc1 | inconclusive: 79.4 µM [inhibitor, partial curve, poor fit] |  |
| O=C1c2ccccc2C(=O)N1CCc1csc(-c2ccc(F)cc2)n1 | inconclusive: 39.8 µM [inhibitor, single point] |  |
